# Laboratory results reported in the supplement of paper PMC7125110.
# ± gives the standard error. Variants at the background level are over-represented here.
# B1: glmS ribozyme (parent)
# chain: AUAAAAGCGCCAGAACUACAGAAAUGUAGUUGACGAGGAGGAGGUUUAUCGAAUUUUCGGCGGAUGCCUCCAAA
# How the values were obtained:
# Conditions in all cases: with glucosamine-6-phosphate
# glucosamine-6-phosphate [1] = variants of: B1; experiment: self-cleavage kobs at 640 uM GlcN6P; higher = faster cleavage; RNA array
# In short: (§1)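 Glucosamine-6-phosphate (40 μM to 10 mM) in HEPES/KCl/Mg(OAc)2 buffer was flowed over sequenced MiSeq chips, and tiles were imaged over ~14 h. Barcoded ribozyme variants there had been transcribed in situ by E. coli RNA polymerase and were tracked through a hybridised Cy3 probe at 37 °C. One- or two-exponential decay fits to per-tile medians, normalised to baseline and to non-cleaving reference variants, gave kobs. kcat and KM came from weighted Michaelis–Menten fits across concentrations.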
# glucosamine-6-phosphate [2] = variants of: B1; experiment: self-cleavage kobs at 160 uM GlcN6P; higher = faster cleavage; RNA array
# In short: as §1
# glucosamine-6-phosphate [3] = variants of: B1; experiment: self-cleavage kobs at 2500 uM GlcN6P; higher = faster cleavage; RNA array
# In short: as §1
# glucosamine-6-phosphate [4] = variants of: B1; experiment: self-cleavage kobs at 10000 uM GlcN6P; higher = faster cleavage; RNA array
# In short: as §1
Variant,self-cleavage kobs at 640 uM GlcN6P (glucosamine-6-phosphate [1]),self-cleavage kobs at 160 uM GlcN6P (glucosamine-6-phosphate [2]),self-cleavage kobs at 2500 uM GlcN6P (glucosamine-6-phosphate [3]),self-cleavage kobs at 10000 uM GlcN6P (glucosamine-6-phosphate [4])
A33U G38A A39G C67G,< 1e-05 s⁻¹,< 1e-05 s⁻¹,< 1e-05 s⁻¹,
G37U A39C A64G U69G,< 1e-05 s⁻¹,,,
G35U U56A,< 1e-05 s⁻¹,< 1e-05 s⁻¹,,< 1e-05 s⁻¹
G13C U46G A53U U54A,< 1e-05 s⁻¹,,,
G32C G51A,< 1e-05 s⁻¹,,< 1e-05 s⁻¹,
A36G G38U U56G,< 1e-05 s⁻¹,< 1e-05 s⁻¹,,
C34G A53G C68G,0.000115 ± 2.5e-05 s⁻¹,0.000101 ± 2.4e-05 s⁻¹,8.44e-05 ± 3.6e-05 s⁻¹,
G29C A52U A53G,< 1e-05 s⁻¹,,,
G29U G32U C58U C67A,3.68e-05 ± 1.8e-05 s⁻¹,,8.93e-05 ± 2.6e-05 s⁻¹,
A33C G35A G60A,< 1e-05 s⁻¹,,< 1e-05 s⁻¹,
G38U U46C A53U,< 1e-05 s⁻¹,,< 1e-05 s⁻¹,< 1e-05 s⁻¹
G32U G41A G66C C67A,< 1e-05 s⁻¹,,< 1e-05 s⁻¹,
G37C G41A G44A G51C C61A C71A,< 1e-05 s⁻¹,< 1e-05 s⁻¹,< 1e-05 s⁻¹,
A15U A33G A42G U54A,< 1e-05 s⁻¹,,< 1e-05 s⁻¹,
A12G U30G G59U,< 1e-05 s⁻¹,,,
C11A G43U A48C C71A,< 1e-05 s⁻¹,,< 1e-05 s⁻¹,
G35A G41U G51C,< 1e-05 s⁻¹,,,
G35U G41A A64G,< 1e-05 s⁻¹,,< 1e-05 s⁻¹,
G32C A36G G44A U65G,< 1e-05 s⁻¹,,< 1e-05 s⁻¹,

Variant,self-cleavage kobs at 640 uM GlcN6P (glucosamine-6-phosphate [1]),self-cleavage kobs at 160 uM GlcN6P (glucosamine-6-phosphate [2]),self-cleavage kobs at 2500 uM GlcN6P (glucosamine-6-phosphate [3]),self-cleavage kobs at 10000 uM GlcN6P (glucosamine-6-phosphate [4])
G32U G63C C67U,< 1e-05 s⁻¹,< 1e-05 s⁻¹,,
C11G A33U C34A G41A U54A,< 1e-05 s⁻¹,< 1e-05 s⁻¹,< 1e-05 s⁻¹,
A14U G40U U47A A64C,< 1e-05 s⁻¹,,,
A12U G60C C70U,< 1e-05 s⁻¹,,,
G32A C67A,0.000168 ± 3.4e-05 s⁻¹,5.05e-05 ± 1.6e-05 s⁻¹,0.000586 ± 0.00011 s⁻¹,0.000728 ± 8.2e-05 s⁻¹
G29C G51U,< 1e-05 s⁻¹,,,
A14C G38A G66A,< 1e-05 s⁻¹,,,
A12G G41U A48C C50G,< 1e-05 s⁻¹,< 1e-05 s⁻¹,< 1e-05 s⁻¹,
G13A G32C A36U G37C G40C U45C,< 1e-05 s⁻¹,,< 1e-05 s⁻¹,
U31C U49A,< 1e-05 s⁻¹,,,
C34A G38C A53C,< 1e-05 s⁻¹,,,
U30C C70G,6.49e-05 ± 1.1e-05 s⁻¹,5.73e-05 ± 1.4e-05 s⁻¹,,
A39G U46A G59C C71G,< 1e-05 s⁻¹,,< 1e-05 s⁻¹,< 1e-05 s⁻¹
G13A C34A,< 1e-05 s⁻¹,< 1e-05 s⁻¹,< 1e-05 s⁻¹,< 1e-05 s⁻¹
G29A U49A A53G C68A,7.05e-05 ± 2.9e-05 s⁻¹,,,
A39U G41C G60A,< 1e-05 s⁻¹,,,
G29A G35C U57A,< 1e-05 s⁻¹,,,
C11U C34A U55G,< 1e-05 s⁻¹,,,
G35A A64G,< 1e-05 s⁻¹,< 1e-05 s⁻¹,< 1e-05 s⁻¹,< 1e-05 s⁻¹

Variant,self-cleavage kobs at 640 uM GlcN6P (glucosamine-6-phosphate [1]),self-cleavage kobs at 160 uM GlcN6P (glucosamine-6-phosphate [2]),self-cleavage kobs at 2500 uM GlcN6P (glucosamine-6-phosphate [3]),self-cleavage kobs at 10000 uM GlcN6P (glucosamine-6-phosphate [4])
C16A A36U A48G,< 1e-05 s⁻¹,< 1e-05 s⁻¹,,< 1e-05 s⁻¹
C11G A36C G41C G60A,< 1e-05 s⁻¹,< 1e-05 s⁻¹,< 1e-05 s⁻¹,
U27G A28U U30G C68A,< 1e-05 s⁻¹,,< 1e-05 s⁻¹,
A33U A48C G62U,< 1e-05 s⁻¹,< 1e-05 s⁻¹,< 1e-05 s⁻¹,
G38C C58A,< 1e-05 s⁻¹,< 1e-05 s⁻¹,< 1e-05 s⁻¹,< 1e-05 s⁻¹
G38C C58G,< 1e-05 s⁻¹,< 1e-05 s⁻¹,,< 1e-05 s⁻¹
A12U G60U G62U,< 1e-05 s⁻¹,,,
G29C U45C U49C,< 1e-05 s⁻¹,,,
G35U G41U U56A,< 1e-05 s⁻¹,< 1e-05 s⁻¹,< 1e-05 s⁻¹,< 1e-05 s⁻¹
U31A C61U C70G,< 1e-05 s⁻¹,,,
A12C A14C C34A G63C,< 1e-05 s⁻¹,,,
A39U G44U U49A,< 1e-05 s⁻¹,,< 1e-05 s⁻¹,
G37A G40A C58A,< 1e-05 s⁻¹,,,
G29A G51C G59C,< 1e-05 s⁻¹,,,
C16A C50G U55C G63C C70G,0.00119 ± 0.00038 s⁻¹,0.000129 ± 4.7e-05 s⁻¹,,
A15U A33U G43A G44A C50G G59A C67U,< 1e-05 s⁻¹,< 1e-05 s⁻¹,< 1e-05 s⁻¹,
A15G G44C G59U,< 1e-05 s⁻¹,,< 1e-05 s⁻¹,
G35A U55G,< 1e-05 s⁻¹,< 1e-05 s⁻¹,< 1e-05 s⁻¹,
A36U U55C U57A,< 1e-05 s⁻¹,,,
